# From publication PMC4336329 (PLoS ONE, 2015)
# The whole screen tested about 310,000 compounds, of which about 2,200 (0.71%) showed an effect of 50% or more. The effect is printed as a negative number. The list shows a part of the results.
# Target: human ether-à-go-go-related gene (hERG) potassium channel (human, UniProt Q12809)
# Assay: primary screen, population patch clamp on CHO cells stably expressing hERG
# Sequence of human ether-à-go-go-related gene (hERG) potassium channel (Q12809 whole entry, looked up): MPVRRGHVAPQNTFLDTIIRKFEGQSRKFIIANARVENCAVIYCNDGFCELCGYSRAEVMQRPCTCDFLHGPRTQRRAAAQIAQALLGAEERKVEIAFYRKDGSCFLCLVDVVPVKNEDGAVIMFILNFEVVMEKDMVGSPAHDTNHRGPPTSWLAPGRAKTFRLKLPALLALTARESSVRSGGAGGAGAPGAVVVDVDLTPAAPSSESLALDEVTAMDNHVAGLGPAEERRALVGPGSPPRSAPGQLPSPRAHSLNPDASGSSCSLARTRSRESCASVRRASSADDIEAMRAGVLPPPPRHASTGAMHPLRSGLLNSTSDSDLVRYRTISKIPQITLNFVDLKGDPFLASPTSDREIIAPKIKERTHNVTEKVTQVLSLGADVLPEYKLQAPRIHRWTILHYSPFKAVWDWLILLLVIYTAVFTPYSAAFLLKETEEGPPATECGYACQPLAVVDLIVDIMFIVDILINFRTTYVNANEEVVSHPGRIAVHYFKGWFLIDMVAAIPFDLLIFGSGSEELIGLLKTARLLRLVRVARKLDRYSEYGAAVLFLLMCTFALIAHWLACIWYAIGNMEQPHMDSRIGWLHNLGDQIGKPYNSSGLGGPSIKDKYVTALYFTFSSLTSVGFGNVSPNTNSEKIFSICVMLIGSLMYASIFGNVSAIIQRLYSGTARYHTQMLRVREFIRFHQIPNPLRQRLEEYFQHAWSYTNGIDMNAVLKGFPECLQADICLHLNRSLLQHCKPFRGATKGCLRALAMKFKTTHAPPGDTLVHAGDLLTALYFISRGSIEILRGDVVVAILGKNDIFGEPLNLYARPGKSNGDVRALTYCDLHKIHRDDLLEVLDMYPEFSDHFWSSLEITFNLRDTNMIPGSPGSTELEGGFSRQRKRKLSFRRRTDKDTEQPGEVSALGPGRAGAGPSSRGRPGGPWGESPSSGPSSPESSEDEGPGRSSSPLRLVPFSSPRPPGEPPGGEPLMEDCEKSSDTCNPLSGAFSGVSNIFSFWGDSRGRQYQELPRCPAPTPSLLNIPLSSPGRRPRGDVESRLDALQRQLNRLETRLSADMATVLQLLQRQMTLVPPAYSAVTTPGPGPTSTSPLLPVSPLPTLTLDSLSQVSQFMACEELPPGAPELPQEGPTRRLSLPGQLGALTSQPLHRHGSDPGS
row,Compound,"hERG current change (%, negative = inhibition) at 1uM [%]"
1,COc1ccc(C2C(C(=O)O)c3ccccc3C(=O)N2Cc2ccco2)cc1 (stereo not drawn),11.5
2,CCCCNc1nc2c(c(=O)[nH]c(=O)n2C)n1CCOc1ccccc1,5.77
3,O=C(NCc1ccccc1)C(c1ccncc1)N(C(=O)c1ccccn1)c1ccccc1 (stereo not drawn),14.8
4,COc1ccc2ccc(O)c(CN3CC=C(c4ccccc4)CC3)c2c1,22.2
5,Br.Cc1ccc(C)c(C2=CSC3=NCCN23)c1,-1.3
6,Cc1nn(C)cc1C1C2=C(CC(C)(C)CC2=O)OC2=C1C(=O)CC(C)(C)C2,-9.73
7,OCC[C@H]1C[C@H](O)[C@@H](O)[C@]2(Cc3ccccc3O2)O1,-16
8,CSCCC1(C(=O)O)NC(c2ccccc2O)C2C(=O)N(C(C)C)C(=O)C21 (stereo not drawn),20.3
9,Cc1ccc(-c2nc(N/N=C/c3ccccc3[N+](=O)[O-])c3ccccc3n2)cc1,3.57
10,COc1ccc(C(=O)NN2C(=O)C3C(c4ccccc4)C=CC(c4ccccc4)C3C2=O)cc1 (stereo not drawn),5.2
11,Cc1cccc(Cn2cc(C=O)c3ccccc32)c1,13.3
12,CC(=O)Nc1ccc(S(=O)(=O)Nc2nc3ccccc3nc2Cl)cc1,4.91
13,COc1ccccc1-n1cnnc1SCC(=O)Nc1cc(C(C)(C)C)nn1-c1ccccc1,3.78
14,O=C(/C=C/c1ccc(F)cc1)N1CCN(Cc2ccccc2)CC1,-1.21
15,CCCNS(=O)(=O)c1ccc(OCC(=O)NCc2ccco2)cc1,-22.4
16,COc1ccc(C(c2nnnn2CS(=O)(=O)c2ccc(C)cc2)N2CCN(c3ncccn3)CC2)cc1 (stereo not drawn),0.618
17,Cc1cc(=O)cc(C)n1-c1ccc2c(c1)nc(C)n2-c1ccccc1,5.37
18,CCCc1cc(=O)oc2cc(Oc3ncccn3)ccc12,-5.6
19,COc1ccc(S(=O)(=O)NCc2ccc(C(=O)N3CCc4ccccc4C3)cc2)cc1,7.79

row,Compound,"hERG current change (%, negative = inhibition) at 1uM [%]"
1,C=CCNc1nc(Cl)nc(Nc2ccc(OCC)cc2)n1,8.51
2,NC(=O)c1ccccc1NC(=O)/C=C/C(=O)O,13.2
3,O=C(c1ccoc1)N1CCC(CO)(CCc2ccccc2)CC1,-0.129
4,Cc1noc(/C=C/c2cccs2)c1S(=O)(=O)N1CCC(C(=O)NCCCN2CCC(C)CC2)CC1,-29.1
5,O=C(C[n+]1cc(-c2ccc(Cl)c(Cl)c2)n2c1CCC2)c1cccs1.[Br-],10.1
6,COCCCn1c(SCC(=O)NC2CCCC2)nnc1-c1cccs1,7.22
7,COC(=O)CNC(=O)CN1c2cccc3cccc(c23)S1(=O)=O,-12.4
8,CC(C)Oc1ccc(OCCSc2nc3ccccc3n2CC(=O)O)cc1,9.65
9,CC(C)c1ccc(NC(=O)CN2C(=O)COc3ccc(S(=O)(=O)N4CCOCC4)cc32)cc1,12.5
10,Cc1c(CCC(=O)NCCC(=O)O)c(=O)oc2c(C)c3oc4c(c3cc12)CCCC4,4.2
11,COc1ccc2c(c1)cc(C(=O)N[C@@H](CCSC)C(=O)N1CCC(C(=O)O)CC1)n2C,16.5
12,Cc1[nH]nc(SCC(=O)NCCc2ccccc2)c1[N+](=O)[O-],18
13,Cc1ccccc1Oc1nc2ccccc2n2cnnc12,11.7
14,O=C(NCc1ccco1)NC(=O)c1csc([N+](=O)[O-])c1,13.9
15,O=C(NNc1ccnc2cc(Cl)ccc12)C1CCCCC1,2.18
16,COc1ccc(CNc2nc3ccccc3n2C)c(O)c1,11.5
17,Oc1ccc(C=NCC2COc3ccccc3O2)cc1 (stereo not drawn),-15.8
18,O=[N+]([O-])c1ccc(NC(=S)N2CCN(c3ccccc3)CC2)cc1,6.02
19,Cc1ccc(F)cc1NC(=O)CN1CCN(Cc2ccccc2)CC1,-16.8

row,Compound,"hERG current change (%, negative = inhibition) at 1uM [%]"
1,CC(C)CC(=O)Nc1ccnn1C1CCN(C(=O)c2ccc(F)cc2Cl)CC1,7.28
2,CC1CCN(S(=O)(=O)c2ccc(Br)s2)CC1,14.4
3,C=CCSc1ccccc1C(=O)Nc1ncn[nH]1,15.3
4,Cc1ccc(O)c(CNCCNCc2cc(C)ccc2O)c1,15.3
5,CCC(=NCC1CCCO1)c1c(O)n(-c2ccc(OC)cc2)c(=O)[nH]c1=O (stereo not drawn),14
6,CC(C)c1ccc(NC(=O)C2C3C=CC4(O3)C2C(=O)N(CCCN2CCOCC2)C4C(=O)NC2CCCCC2)cc1 (stereo not drawn),18
7,O=C(CSc1nnc(CCCN2C(=O)c3cccc4cccc(c34)C2=O)n1-c1ccccc1)N1CCN(CCO)CC1,-4.42
8,CCN(CC(=O)Nc1cccc(OC)c1)C(=O)c1ccco1,17.8
9,N#C/C(=C\c1ccncc1)C(N)=O,9.13
10,Fc1ccc(/C=N/n2c(COc3ccccc3)n[nH]c2=S)cc1,17.3
11,COCCCn1cnnc1SCc1nc2sc(C(C)=O)c(C)c2c(=O)[nH]1,-2.55
12,CCc1nnc(NC(=O)C2CC(=O)N(C3CCCCC3)C2)s1 (stereo not drawn),13.4
13,COc1ccc(CCNS(=O)(=O)c2ccc3c(c2)NC(=O)CCS3)cc1OC,14.8
14,O=S(=O)(c1ccc(Br)s1)N1CCN(CCc2ccccc2)CC1,16.8
15,CCCn1c(=S)[nH]c2cc(C(=O)N3CCN(c4ccccc4OC)CC3)ccc2c1=O,7.21
16,CC(=O)Nc1ccc(NC(=O)Cn2ccc([N+](=O)[O-])n2)cc1,10.5
17,O=C(NCc1ccco1)C1CCCCC1,10.3
18,Cc1noc(C)c1COC(=O)CCc1nc2ccccc2s1,6.69
19,COc1ccccc1C(=O)n1nc(-c2ccco2)nc1SC,5.24
